Over roughly 33,000 sequences, “E-score (-0.5 to 0.5)” has its median near -0.017; the highest 2% begin near 0.3. Some of the results follow.
biological target: T1, Sut1 (UniProt P53032); test: PBM E-score (8-mer binding enrichment) (E-score (-0.5 to 0.5)); higher = stronger / more preferred TF binding; most listed sequences are background and not binding sites; conditions: protein concentration: 200 nM; construct: GST-full length
T1 sequence: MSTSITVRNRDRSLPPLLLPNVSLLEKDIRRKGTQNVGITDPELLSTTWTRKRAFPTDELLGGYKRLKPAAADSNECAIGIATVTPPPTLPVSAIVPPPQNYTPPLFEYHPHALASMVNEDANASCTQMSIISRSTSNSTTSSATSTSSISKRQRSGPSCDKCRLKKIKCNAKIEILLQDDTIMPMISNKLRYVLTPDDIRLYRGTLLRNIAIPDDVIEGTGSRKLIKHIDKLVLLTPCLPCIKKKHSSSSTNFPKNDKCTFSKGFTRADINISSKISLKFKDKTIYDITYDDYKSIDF
Description: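 Universal 'all 10-mer' protein binding microarrays (Agilent AMADID 015681) probed with GST-tagged S. cerevisiae TFs (full-length or DBD) made by in vitro transcription/translation (PURExpress), about 100-200 nM. Bound TF was detected with fluorescent anti-GST. Each ungapped 8-mer (which stands for itself and its reverse complement) is scored by the PBM enrichment score (E-score), a modified Wilcoxon-Mann-Whitney statistic from -0.5 to +0.5, computed with the Universal PBM Analysis Suite. Scale: above 0.35 generally sequence-specific binding.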

| Sequence | PBM E-score |
| --- | --- |
| GCCGGCGA | 0.0246 |
| ATTTTGCA | 0.126 |
| AGCCGTAT | -0.0789 |
| GACCGGCC | -0.104 |
| CCAGTGCC | -0.303 |
| ACGCAGCC | -0.142 |
| AAAAGCCG | -0.0748 |
| AAATTAGT | 0.222 |
| AATCAAAA | 0.189 |
| CCGCGCAC | -0.0717 |
| GAGGCAGA | -0.257 |
| ACGTAGTC | -0.252 |
| CCCGCCGG | -0.17 |
| CAATTAAC | 0.245 |
| AATTGGCA | -0.183 |
| AGGGGTTC | -0.181 |
| ATCTTGAC | -0.184 |
| CCAGTACA | -0.104 |
| CGTGAATC | 0.146 |
| GGTCCAGA | -0.172 |
| GTTCCGCA | 0.0832 |
| AGGTGGAC | -0.285 |
| GAACGGTA | -0.167 |
| ACGTGAAT | 0.0208 |
| ACTGCCTG | -0.0119 |

| Sequence | PBM E-score |
| --- | --- |
| AACGTACG | -0.147 |
| GCGGCTAC | -0.181 |
| CGTCTACC | -0.0571 |
| ACGATGCG | -0.0696 |
| AAGTAGAT | 0.158 |
| CGCTCACG | 0.0735 |
| AAACGTCC | -0.0656 |
| ATAAAATA | 0.323 |
| CCGCCCCG | 0.224 |
| CGTTTTCA | 0.158 |
| GTGTTCGA | -0.0667 |
| ACTTCTTG | -0.0568 |
| GCTTCACA | -0.084 |
| AATCTCAG | -0.134 |
| GCGAGCAC | -0.276 |
| GCTCAAAC | 0.196 |
| ATTATGAA | 0.209 |
| AGTCGCAT | -0.0588 |
| GATTGGGA | -0.0746 |
| CTCATACC | -0.0198 |
| GATGTCGC | -0.127 |
| CTGGTGGC | -0.208 |
| CGCTAGTA | 0.101 |
| ACCCCGAC | 0.273 |
| CGGGCTAA | -0.194 |

| Sequence | PBM E-score |
| --- | --- |
| CCTTGGGA | -0.144 |
| ACTTACCA | 0.0741 |
| TAATAGAA | 0.21 |
| AGTCGAGG | -0.0798 |
| AGACAGAC | 0.0831 |
| AGGGTCAG | -0.312 |
| CTCAACTA | -0.0597 |
| GTAGACTA | -0.116 |
| ATATAGAA | 0.21 |
| AAAGTCCA | 0.0103 |
| GAACGAAC | 0.0882 |
| ACTATCCT | 0.196 |
| AGGGCTAG | -0.178 |
| AATCCCTA | 0.0339 |
| AGCCTGGA | -0.244 |
| CACTTTCG | 0.0753 |
| CACAGTTC | -0.0798 |
| AGGTGGGG | -0.154 |
| GTCCCTGA | -0.24 |
| CATAGCGA | -0.031 |
| CGTCACCC | -0.238 |
| AAAATGGC | 0.0418 |
| GTCCAGAA | 0.00171 |
| GAGATGGC | 0.11 |
| CCTTATGC | 0.0269 |

| Sequence | PBM E-score |
| --- | --- |
| GAGCTATC | -0.0645 |
| CCGTCCCG | 0.0308 |
| ATGACTGG | -0.23 |
| GCGGCGGA | 0.26 |
| CCGGCAAC | 0.00605 |
| CAAGTAGA | -0.0646 |
| AGGGACGA | -0.112 |
| TCTTACCA | -0.113 |
| TGCATTAA | -0.00455 |
| CTAGGAAA | -0.0348 |
| CAGGGGGG | -0.419 |
| AGCTATTG | 0.0263 |
| CCTACCGC | -0.226 |
| AGGTGTTC | -0.256 |
| ATGTCGCA | -0.0146 |
| ATACGCGC | -0.098 |
| AGTCGTTG | -0.18 |
| CGGAACAC | 0.25 |
| CAGAGGGA | -0.329 |
| AAGAAGAA | 0.189 |
| GCGATATA | -0.0297 |
| CGATGCAG | -0.188 |
| ATACTTAC | 0.139 |
| GAATCAAA | 0.134 |
| ACTTCCTG | -0.00111 |

| Sequence | PBM E-score |
| --- | --- |
| TAATGCCA | 0.0847 |
| GCCTCAAC | -0.133 |
| ATAAGGGG | -0.0799 |
| ACTTATCA | -0.0107 |
| AGTTGTCA | -0.00646 |
| TAGACACA | -0.026 |
| TCTATCCA | -0.0141 |
| CCCGAATA | 0.0785 |
| AAGTAGAC | 0.0643 |
| AAATTATT | 0.328 |
| AACCTGAA | -0.186 |
| CATGGCAA | -0.109 |
| TGCTGTAA | 0.0412 |
| CCAACTAG | -0.0817 |
| TTCAACAA | 0.133 |
| GCCGAACA | 0.126 |
| CCAATTGC | -0.0223 |
| GGGCTTGA | -0.0194 |
| ACACAGGG | -0.132 |
| GGGGATCA | -0.218 |
| AAAGTCCC | 0.0514 |
| ACTTCGGG | 0.0676 |
| CAAAGCAC | 0.0115 |
| CTGTCTTC | -0.0424 |
| ACAGCTAG | -0.199 |

| Sequence | PBM E-score |
| --- | --- |
| ATCCACTG | -0.0169 |
| TAGCGGAA | 0.0446 |
| ATATGGAT | 0.123 |
| ACCTTGCT | -0.0591 |
| CGGCACGC | -0.11 |
| TGCCAAAA | 0.101 |
| ACTTTACG | 0.0657 |
| AAAGTTCA | -0.00163 |
| GTATTAAC | 0.155 |
| CGTGGGAA | -0.235 |
| GATAGAGC | 0.0377 |
| CCACTAAC | -0.0741 |
| TGCATGAA | 0.138 |
| CACCGTCG | -0.0962 |
| ATTTTGAA | 0.241 |
| GACTCAAC | 0.115 |
| CTTGCATA | 0.077 |
| AGCAGATA | 0.0338 |
| GATACAAC | 0.158 |
| ATTTACGG | 0.292 |
| ACCACTAT | -0.00765 |
| AAAGAGGT | 0.0394 |
| ACCCAGCG | -0.254 |
| ACTGAGGA | -0.0529 |
| AAGGGATT | -0.0378 |

| Sequence | PBM E-score |
| --- | --- |
| ATTTAGCC | -0.00257 |
| CCATTTAC | 0.0761 |
| ATGATGAA | 0.231 |
| CACATCCC | -0.243 |
| GGCGATAA | -0.0163 |
| AGGCCGAA | 0.0931 |
| GACATTAC | 0.0262 |
| GACGAGGA | -0.137 |
| ACAAGGTG | -7e-05 |
| AGCCGTGG | -0.256 |
| CTCTGGTA | -0.128 |
| AGATCGTC | -0.0781 |
| ACCAACTG | -0.0972 |
| TATCGCGA | 0.0753 |
| CATAGTGG | -0.0855 |
| AGAAGCAG | -0.0721 |
| ACTGTACC | 0.00175 |
| CGTAATCC | 0.0632 |
| GAGAGACA | -0.0219 |
| AGCCGCAG | -0.118 |
| GTCTGCAA | -0.0577 |
| AGCGACCC | -0.139 |
| ATTGTCAG | -0.0386 |
| AGGGGATC | -0.134 |
| AGATAAGG | -0.0922 |

| Sequence | PBM E-score |
| --- | --- |
| TAGTGACA | 0.256 |
| GGTAGCTA | -0.306 |
| ACAAGCCT | -0.234 |
| AGGTATAT | 0.185 |
| CTAAGGTA | 0.0558 |
| ATTAGCGA | -0.00039 |
| ATTACATC | 0.2 |
| ACTTGTCC | -0.0229 |
| CTATTGAA | 0.226 |
| ATATTCTG | 0.102 |
| CCAGCTCG | -0.214 |
| TCATACAA | 0.304 |
| CACTGGCA | -0.0547 |
| CGGAGGCC | -0.0941 |
| CTTACGCA | -0.0106 |
| AATACGTC | 0.195 |
| ATTCCGAG | 0.341 |
| AAGCATTC | 0.0319 |
| CGGGGACC | -0.0538 |
| GACAAAAC | 0.224 |
| ATTTATGC | 0.137 |
| CTAAGGAC | -0.0474 |
| TTAAGTAA | 0.221 |
| AGGCGTCA | -0.281 |
| AGTGTATG | 0.14 |

| Sequence | PBM E-score |
| --- | --- |
| CAGGTTCG | -0.0044 |
| AGACTACA | -0.132 |
| AATCGTCT | -0.113 |
| ACGCTTAG | 0.121 |
| ACGTAGTA | -0.139 |
| ACGGGCGA | -0.237 |
| AGTGCCAG | -0.325 |
| ACTGATGG | -0.152 |
| ACAGGTGC | -0.123 |
| CACGAAGA | -0.0196 |
| ATGTCATC | -0.082 |
| CCGGTACA | 0.0825 |
| CAACAGCC | -0.13 |
| ACCGTGAA | 0.00123 |
| AGCCTACA | 0.00657 |
| AGGGCATG | -0.194 |
| CACTCGCC | -0.0552 |
| GGGCCTGA | -0.288 |
| CAGACTCG | -0.26 |

— the supplement of paper PMC3334620
